{"source": "the supplement of paper PMC8728848", "binders": {"B1": {"name": "GS13455A-bfa-343-25-343 (Bacteroides fragilis) (protein)", "chain": "KDEIQIVDQDTSWQMDNKYIEEDIREQLGIDPFTDLVYLGYYGNPYTQLEAINDLVNTTLVGKNELSFKVKVTKPYKEDIKVNLMKEDKLVTDFPEMAEGIPLFPSENCTFEGGVLKAGELETTVKLTLKDVEKLNNLSGYVMAIKLTMEGSHEHLAIARTRSSYFVKLNLSIRLDNIDSSNKKIEGKGFNKEISFKSDIRPDKLGSLNDGNFTANNWYTSNANNYLTIILPEKQSLKGFRLDTNTSPSGSYMLKSCRVMVETPDGNWVNHGVFDRKSMDGIAYISFKKPVECTKVRFENMMAFNGRFSVDVNEVTAFR"}}, "test_in_all_cases": "glycan array binding signal (z-score within array); higher = stronger binding", "details_in_all_cases": "glycan notation: IUPAC condensed, linker removed", "key": {"[1]": {"target": "Neu5Ac(a2-3)Gal(b1-4)GlcNAc(b1-6)GalNAc", "summary_of_the_method": "(§1)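 Glycan array binding is given as a within-array Z-score, which can be read as non-binding when negative. The arrays, 3228 of them, came from the Consortium for Functional Glycomics database and were retained only where the protein sequence was available. Z-scores were averaged across arrays of the same protein sequence at different concentrations or buffers and across linkers.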"}, "[2]": {"target": "Neu5Ac(a2-3)Gal(b1-4)GlcNAc(b1-6)[Gal(b1-3)]GalNAc", "summary_of_the_method": "as §1"}, "[3]": {"target": "Neu5Ac(a2-3)Gal(b1-4)GlcNAc(b1-6)[Neu5Ac(a2-3)Gal(b1-3)]GalNAc", "summary_of_the_method": "as §1"}, "[4]": {"target": "Neu5Ac(a2-3)Gal(b1-4)GlcNAc6S", "summary_of_the_method": "as §1"}, "[5]": {"target": "Neu5Ac(a2-3)Gal(b1-4)[Fuc(a1-3)]GlcNAc", "summary_of_the_method": "as §1"}, "[6]": {"target": "Neu5Ac(a2-3)Gal(b1-4)[Fuc(a1-3)]GlcNAc(b1-2)Man", "summary_of_the_method": "as §1"}, "[7]": {"target": "Neu5Ac(a2-3)Gal(b1-4)[Fuc(a1-3)]GlcNAc(b1-3)Gal", "summary_of_the_method": "as §1"}, "[8]": {"target": "Neu5Ac(a2-3)Gal(b1-4)[Fuc(a1-3)]GlcNAc(b1-3)Gal(b1-4)GlcNAc", "summary_of_the_method": "as §1"}, "[9]": {"target": "Neu5Ac(a2-3)Gal(b1-4)[Fuc(a1-3)]GlcNAc(b1-3)Gal(b1-4)[Fuc(a1-3)]GlcNAc(b1-3)Gal(b1-4)[Fuc(a1-3)]GlcNAc", "summary_of_the_method": "as §1"}, "[10]": {"target": "Neu5Ac(a2-3)Gal(b1-4)[Fuc(a1-3)]GlcNAc(b1-3)GalNAc", "summary_of_the_method": "as §1"}, "[11]": {"target": "Neu5Ac(a2-3)Gal(b1-4)[Fuc(a1-3)]GlcNAc(b1-6)[Gal(b1-3)]GalNAc", "summary_of_the_method": "as §1"}, "[12]": {"target": "Neu5Ac(a2-3)Gal(b1-4)[Fuc(a1-3)]GlcNAc(b1-6)[Neu5Ac(a2-3)Gal(b1-3)]GalNAc", "summary_of_the_method": "as §1"}, "[13]": {"target": "Neu5Ac(a2-3)Gal(b1-4)[Fuc(a1-3)]GlcNAc6S", "summary_of_the_method": "as §1"}, "[14]": {"target": "Neu5Ac(a2-3)Gal6S(b1-4)GlcNAc", "summary_of_the_method": "as §1"}, "[15]": {"target": "Neu5Ac(a2-3)Gal6S(b1-4)[Fuc(a1-3)]GlcNAc", "summary_of_the_method": "as §1"}, "Neu5Ac(a2-3)GalNAc": {"target": "Neu5Ac(a2-3)GalNAc", "summary_of_the_method": "as §1"}, "[16]": {"target": "Neu5Ac(a2-3)GalNAc(b1-4)GlcNAc", "summary_of_the_method": "as §1"}, "[17]": {"target": "Neu5Ac(a2-3)[GalNAc(b1-4)]Gal(b1-4)Glc", "summary_of_the_method": "as §1"}, "[18]": {"target": "Neu5Ac(a2-3)[GalNAc(b1-4)]Gal(b1-4)GlcNAc", "summary_of_the_method": "as §1"}, "[19]": {"target": "Neu5Ac(a2-3)[GalNAc(b1-4)]Gal(b1-4)GlcNAc(b1-3)GalNAc", "summary_of_the_method": "as §1"}, "[20]": {"target": "Neu5Ac(a2-3)[Neu5Ac(a2-6)]GalNAc", "summary_of_the_method": "as §1"}, "Neu5Ac(a2-6)Gal": {"target": "Neu5Ac(a2-6)Gal", "summary_of_the_method": "as §1"}, "[21]": {"target": "Neu5Ac(a2-6)Gal(b1-3)GlcNAc(b1-3)[Gal(b1-4)GlcNAc(b1-6)]Gal(b1-4)Glc", "summary_of_the_method": "as §1"}, "Neu5Ac(a2-6)Gal(b1-4)Glc": {"target": "Neu5Ac(a2-6)Gal(b1-4)Glc", "summary_of_the_method": "as §1"}, "[22]": {"target": "Neu5Ac(a2-6)Gal(b1-4)GlcNAc", "summary_of_the_method": "as §1"}, "[23]": {"target": "Neu5Ac(a2-6)Gal(b1-4)GlcNAc(b1-2)Man", "summary_of_the_method": "as §1"}, "[24]": {"target": "Neu5Ac(a2-6)Gal(b1-4)GlcNAc(b1-2)Man(a1-3)Man(b1-4)GlcNAc(b1-4)GlcNAc", "summary_of_the_method": "as §1"}, "[25]": {"target": "Neu5Ac(a2-6)Gal(b1-4)GlcNAc(b1-2)Man(a1-3)[Gal(b1-4)GlcNAc(b1-2)Man(a1-6)]Man(b1-4)GlcNAc(b1-4)GlcNAc", "summary_of_the_method": "as §1"}, "[26]": {"target": "Neu5Ac(a2-6)Gal(b1-4)GlcNAc(b1-2)Man(a1-3)[GlcNAc(b1-2)Man(a1-6)]Man(b1-4)GlcNAc(b1-4)GlcNAc", "summary_of_the_method": "as §1"}, "[27]": {"target": "Neu5Ac(a2-6)Gal(b1-4)GlcNAc(b1-2)Man(a1-3)[GlcNAc(b1-4)][Neu5Ac(a2-6)Gal(b1-4)GlcNAc(b1-2)Man(a1-6)]Man(b1-4)GlcNAc(b1-4)GlcNAc", "summary_of_the_method": "as §1"}, "[28]": {"target": "Neu5Ac(a2-6)Gal(b1-4)GlcNAc(b1-2)Man(a1-3)[Man(a1-6)]Man(b1-4)GlcNAc(b1-4)GlcNAc", "summary_of_the_method": "as §1"}}, "note": "This is one part of the list."}
{"binder": "B1", "values": [{"measurement": "glycan array binding signal (z-score)", "setting": "[1]", "value": -0.227}, {"measurement": "glycan array binding signal (z-score)", "setting": "[2]", "value": -0.414}, {"measurement": "glycan array binding signal (z-score)", "setting": "[3]", "value": 0.024}, {"measurement": "glycan array binding signal (z-score)", "setting": "[4]", "value": -0.101}, {"measurement": "glycan array binding signal (z-score)", "setting": "[5]", "value": 0.334}, {"measurement": "glycan array binding signal (z-score)", "setting": "[6]", "value": -0.091}, {"measurement": "glycan array binding signal (z-score)", "setting": "[7]", "value": 0.259}, {"measurement": "glycan array binding signal (z-score)", "setting": "[8]", "value": 1.02}, {"measurement": "glycan array binding signal (z-score)", "setting": "[9]", "value": 0.745}, {"measurement": "glycan array binding signal (z-score)", "setting": "[10]", "value": 3.25}, {"measurement": "glycan array binding signal (z-score)", "setting": "[11]", "value": 0.589}, {"measurement": "glycan array binding signal (z-score)", "setting": "[12]", "value": 0.052}, {"measurement": "glycan array binding signal (z-score)", "setting": "[13]", "value": -0.142}, {"measurement": "glycan array binding signal (z-score)", "setting": "[14]", "value": -0.061}, {"measurement": "glycan array binding signal (z-score)", "setting": "[15]", "value": -0.398}, {"measurement": "glycan array binding signal (z-score)", "setting": "Neu5Ac(a2-3)GalNAc", "value": -0.681}, {"measurement": "glycan array binding signal (z-score)", "setting": "[16]", "value": 0.281}, {"measurement": "glycan array binding signal (z-score)", "setting": "[17]", "value": -0.361}, {"measurement": "glycan array binding signal (z-score)", "setting": "[18]", "value": 0.266}, {"measurement": "glycan array binding signal (z-score)", "setting": "[19]", "value": -0.526}, {"measurement": "glycan array binding signal (z-score)", "setting": "[20]", "value": 0.32}, {"measurement": "glycan array binding signal (z-score)", "setting": "Neu5Ac(a2-6)Gal", "value": -0.078}, {"measurement": "glycan array binding signal (z-score)", "setting": "[21]", "value": -0.125}, {"measurement": "glycan array binding signal (z-score)", "setting": "Neu5Ac(a2-6)Gal(b1-4)Glc", "value": -0.17}, {"measurement": "glycan array binding signal (z-score)", "setting": "[22]", "value": -0.07}, {"measurement": "glycan array binding signal (z-score)", "setting": "[23]", "value": -0.322}, {"measurement": "glycan array binding signal (z-score)", "setting": "[24]", "value": -0.044}, {"measurement": "glycan array binding signal (z-score)", "setting": "[25]", "value": -0.38}, {"measurement": "glycan array binding signal (z-score)", "setting": "[26]", "value": 0.878}, {"measurement": "glycan array binding signal (z-score)", "setting": "[27]", "value": -0.534}, {"measurement": "glycan array binding signal (z-score)", "setting": "[28]", "value": 0.055}]}
